The target in the first assay is SARS-CoV-2 main protease (3CL) enzyme (Mpro) (Severe acute respiratory syndrome coronavirus 2, UniProt P0DTD1). In words: Mpro Inhibition Screening Assay (3CL Fluorogenic Assay Kit, FRET substrate). To be noted: 1 μM, single dose.
As to “(1R,2S,5S)—N—((S)-1-cyano-2-((S)-2-oxopyrrolidin-3-yl)ethyl)-3-(3-(3,5-difluorophenyl)propanoyl)-6,6-dimethyl-3-azabicyclo[3.1.0]hexane-2-carboxamide [Compound 44]”, the “% Inhibition of Mpro @ 1 μM (Single dose)” value came to 10%.

Staying with this assay, now noted: read-out: % Inhibition of Mpro @ 1 μM (Single dose).
As for `N#C[C@H](C[C@@H]1CCNC1=O)NC(=O)[C@H](Cc1cccc(F)c1)NC(=O)CCc1cc(F)cc(F)c1` [Compound 47], the inhibition (usually the relative decrease from the control value, in per cent) at 1 µM was < 1%.
On the same count and under the same terms, in the case of `N#C[C@H](C[C@@H]1CCNC1=O)NC(=O)[C@H](CC1CCCCC1)NC(=O)CCc1cc(F)cc(F)c1` [Compound 43] it was 20%; in that of `COc1cccc2[nH]c(C(=O)N[C@@H](Cc3cccc(F)c3)C(=O)N[C@H](C#N)C[C@@H]3CCNC3=O)cc12` [Compound 32, N—((S)-1-(((S)-1-cyano-2-((S)-2-oxopyrrolidin-3-yl)ethyl)amino)-3-(3-fluorophenyl)-1-oxopropan-2-yl)-4-methoxy-1H-indole-2-carboxamide], 8%; in that of `CC(C)C[C@H](NC(=O)CCc1cc(F)cc(F)c1)C(=O)N[C@H](C#N)C[C@@H]1CCNC1=O` [Compound 46, (S)—N—((S)-1-cyano-2-((S)-2-oxopyrrolidin-3-yl)ethyl)-2-(3-(3,5-difluorophenyl)propanamido)-4-methyl-pentanamide], 21%.
Same read-out and setting: in the case of `CC(C)(C)OC(=O)N[C@H](C(=O)N[C@@H](CC1CC1)C(=O)N[C@H](C#N)C[C@@H]1CCNC1=O)C(C)(C)C` [Compound 35, tert-Butyl ((S)-1-(((S)-1-(((S)-1-cyano-2-((S)-2-oxopyrrolidin-3-yl)ethyl)amino)-3-cyclopropyl-1-oxopropan-2-yl)amino)-3,3-dimethyl-1-oxobutan-2-yl)carbamate] it was 22%; in that of `CC(C)C[C@H](NC(=O)[C@@H](NC(=O)C(F)(F)F)C(C)(C)C)C(=O)N[C@H](C#N)C[C@@H]1CCNC1=O` [Compound 128], 71%; in that of `COc1cccc2[nH]c(C(=O)N[C@@H](CC(C)C)C(=O)N[C@@H](C[C@@H]3CCNC3=O)C(N)=O)cc12` [Compound 53], 0%.

Staying with this assay, now noted: read-out: % Inhibition of Mpro @ 100 μM (Single dose).
`COc1cccc2[nH]c(C(=O)N3CC(F)(F)C[C@H]3C(=O)N[C@H](C#N)C[C@@H]3CCNC3=O)cc12` [Compound 83, (S)—N—((S)-1-cyano-2-((S)-2-oxopyrrolidin-3-yl)ethyl)-4,4-difluoro-1-(4-methoxy-1H-indole-2-carbonyl)pyrrolidine-2-carboxamide]: the inhibition at 100 µM is 64%.
Take `COc1cccc2[nH]c(C(=O)N[C@@H](CC(C)C)C(=O)N[C@H](C#N)C[C@@H]3CCNC3=O)cc12` [Compound 27]: the inhibition at 100 µM was 33%.
On the same count and under the same terms, in the case of `COc1cccc2[nH]c(C(=O)N[C@H](C(=O)N[C@H](C#N)C[C@@H]3CCNC3=O)C(C)(C)C)cc12` [Compound 123] it was 7%; in that of `COc1cccc2[nH]c(C(=O)N[C@@H](Cc3cccc(F)c3)C(=O)N[C@H](C#N)C[C@@H]3CCNC3=O)cc12` [Compound 32, N—((S)-1-(((S)-1-cyano-2-((S)-2-oxopyrrolidin-3-yl)ethyl)amino)-3-(3-fluorophenyl)-1-oxopropan-2-yl)-4-methoxy-1H-indole-2-carboxamide], 0%.
Same read-out and setting: in the case of `COc1cccc2[nH]c(C(=O)N3[C@@H]4CC[C@@H](C4)[C@H]3C(=O)N[C@H](C#N)C[C@@H]3CCNC3=O)cc12` [Compound 84, (3S)—N—((S)-1-cyano-2-((S)-2-oxopyrrolidin-3-yl)ethyl)-2-(4-methoxy-1H-indole-2-carbonyl)-2-azabicyclo[2.2.1]heptane-3-carboxamide] it was 54%; in that of `CC(C)C[C@H](NC(=O)c1cc2ccccc2[nH]1)C(=O)N[C@H](C#N)C[C@@H]1CCNC1=O` [Compound 124], 79%; in that of `CC(C)C[C@H](NC(=O)c1cc2ccccc2[nH]1)C(=O)NC(C=O)Cc1ccc(F)cc1` (some centres unmarked) [Compound 125], 24%.
For the molecule `CC(C)C[C@H](NC(=O)COc1ccc(F)cc1)C(=O)N[C@H](C#N)C[C@@H]1CCNC1=O` [Compound 51, (S)—N—((S)-1-cyano-2-((S)-2-oxopyrrolidin-3-yl)ethyl)-2-(2-(4-fluorophenoxy)acetamido)-4-methylpentanamide], the inhibition at 100 µM turned out to be 0%.
Turning to `COc1cccc2[nH]c(C(=O)N[C@@H](CC(C)C)C(=O)N[C@@H](C[C@@H]3CCNC3=O)C(N)=O)cc12` [Compound 53], the inhibition at 100 µM came to 35%.
